± gives the standard deviation of the averaged measurements. The list shows a part of the results.
Test system: PfAP2-LT AP2 domain (GST-tagged)
Assay: gcPBM binding intensity (ln(normalized median fluorescence intensity)); higher = stronger DNA binding
In short: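 GST-tagged P. falciparum DNA-binding domains produced in E. coli were incubated for 1 h on an Agilent 4 × 180k array of primer-extended double-stranded 36-bp intergenic genomic probes with negative controls. Binding intensity is the highest Masliner-normalised natural-log median intensity across replicate spots of either probe orientation, with bound protein detected by Alexa488 anti-GST antibody at 488 nm.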

| Sequence | gcPBM binding intensity (ln) |
| --- | --- |
| AATAGAAAAAAATAAGTGCATTTTGGTATTCATCAT [GTGCAC_site9614] | 8.74 ± 0.5 |
| AAATTTATATTCATTTGTACGTAATTTAAATTATAC [XGTACX_site5870] | 8.77 ± 0.33 |
| ACATAAATAATAAAAACACACATATGTACATATATA [CACACA_site1913] | 9.14 ± 0.39 |
| TTTTATGTAATTATTTGTACATATGCCTCTTAAACT [XGTACX_site748] | 8.71 ± 0.49 |
| TTATATAGGCAGATGGTGCATCTATTTATAAGCAAC | 8.65 ± 0.42 |
| AAAAATTAAAAGAAAATACACACCTGTGGGTGCTTA [CACACA_site1988] | 8.54 ± 0.47 |
| TGTATGTATTTTCAATGTACATAAAAAAAAAAAAAA [XGTACX_site4397] | 8.48 ± 0.28 |
| TATTTTTTTTGTTAGGTGCATTTACATTTATTTTTA | 8.77 ± 0.52 |
| AAAAAAAAAAGTTCTACACACACAAAAAAATATTTT [CACACA_site8725] | 9.14 ± 0.44 |
| ATATGAGAGAATAAAACACACAAAAAAAAAAAAAAA [CACACA_site2865] | 8.9 ± 0.4 |
| GTAGCCTTTCTTTATAAAGGCAAACAAACAAAAAAT [CACACA_negctrl_site1491] | 8.49 ± 0.33 |
| TAATAATCAAGTTAACGTACAAAATCATCTATAGAA [XGTACX_site5921] | 8.8 ± 0.49 |
| TTTTTAAAACATATCACACATATATATATATATATA [CACACA_site5991] | 9.36 ± 0.21 |
| TATTTTTATAAAAATCGTACAAGTGATCCAATTTTT [XGTACX_site4402] | 8.54 ± 0.42 |
| CCGTATTCAAAAAGGAGTACACAATTATATGTTATA [XGTACX_site641] | 8.69 ± 0.43 |
| TATAATATAATTAAAAGTACTTAAAAAAGAATGAAA [XGTACX_site1157] | 8.61 ± 0.53 |
| TGTTTATATAATATTCTACACACCAACAACAAACAT [CACACA_site8087] | 9.07 ± 0.29 |
| CGCGCACCCAGACACACACACACACCGATATATATA [CACACA_site8687] | 10.1 ± 0.48 |
| TAAATTATCTTTTTATGTACTTATTTTTATTATTTT [XGTACX_site3158] | 8.73 ± 0.55 |

| Sequence | gcPBM binding intensity (ln) |
| --- | --- |
| AAAAAAAAAAAAAGTACACACTTATAAAATATTATG [CACACA_site4639] | 8.76 ± 0.48 |
| TATTTTCAACATATTTGTACATATTTTATATTTTAA [XGTACX_site101] | 8.68 ± 0.38 |
| ATTATATTAGGTAATCAGTTAAATGTTTCCTTTTTA [CACACA_negctrl_site1229] | 8.56 ± 0.42 |
| AAAATATGGATTCATGATATTAAATTTAATTTAATG [XGTACX_negctrl_site214] | 8.38 ± 0.54 |
| ATATAAATAATGTTGACACACACAATAATCTTATTA [CACACA_site9197] | 9 ± 0.42 |
| GTTATACTCATATATACACACATATGTAAATATATA [CACACA_site5764] | 8.9 ± 0.33 |
| ATACGAAAAAAAAAAAGTACACAAAAATATCTACAT [XGTACX_site2051] | 8.88 ± 0.53 |
| TTTATATAATTTTGTGGTACTTATGTGTGTATATTA [XGTACX_site706] | 9.14 ± 0.44 |
| ATTTATTATATATACACACATACATATATATATATA [CACACA_site2159] | 9.245 ± 0.0071 |
| ATAACAAAATAAAACACACACACAAATGTACTTATA [CACACA_site8768] | 9.57 ± 0.18 |
| AAAAAATTCTGGTACTGTACACATTTTTTTAAATTT [XGTACX_site6904] | 8.73 ± 0.43 |
| TGCTTTTATTTCTTCACACATATGTAAAAAAAAGAA [CACACA_site5906] | 8.45 ± 0.54 |
| ATTATGATTTTATAGAACTGAACATTTACATTAAAT [GTGCAC_negctrl_site192] | 8.6 ± 0.46 |
| TGCATACTAGCCAATTGTACATAATTTTATTTTAAA [XGTACX_site513] | 8.46 ± 0.48 |
| AAAAGGAACAGACACACACACATATATATATATATA [CACACA_site3587] | 10.3 ± 0.29 |
| AAAATAAATCTGAATGGGGTATAATATATCTTTGTT [CACACA_negctrl_site744] | 8.86 ± 0.31 |
| TATTATTATTATGGTAGTACATGTAGGTTATTAAAA [XGTACX_site5742] | 8.86 ± 0.38 |
| AATTGGGAAGGACATGCATGAGAAATTAATATTGCA [TGCATGCA_site424] | 9 ± 0.48 |
| ATATTTATAAATTGCACACAAATAATAACATTCTAT [CACACA_site2357] | 8.88 ± 0.34 |

| Sequence | gcPBM binding intensity (ln) |
| --- | --- |
| ACTTTGCTCTACAATGCATGCTCATTTAACAAGGCA [TGCATGCA_site676] | 8.8 ± 0.38 |
| ATATCTACTATACAACTGAGTGTAGAAAAATTAAAC [CACACA_negctrl_site1211] | 9 ± 0.4 |
| TATATTAAATGAAACAAACACACATAGCCTTTAAAT [CACACA_site1559] | 8.96 ± 0.32 |
| AACATACACATATACACACACACATATATACCTATA [CACACA_site6643] | 10 ± 0.31 |
| AAGAAAAAAAAAATTACACACTGCGGACATACACAA [CACACA_site4838] | 9.12 ± 0.42 |
| TCAATTTTACTTGTTTGTACATAAAATAATAAGGTT [XGTACX_site3732] | 8.46 ± 0.38 |
| ATATTTTGTTTTTGTTCTTTTTTTTTCTTTTTTTTT [CACACA_negctrl_site1342] | 8.77 ± 0.59 |
| TATGTAATGTTTACAACACACAAATTATAAATACAA [CACACA_site1771] | 8.83 ± 0.45 |
| ATATATATATATATATGTACATATTTTTATTTATAC [XGTACX_site2858] | 9.52 ± 0.085 |
| TATTTATATGTATATACATGCACATATATATGAAAC [TGCATGCA_site1005] | 8.84 ± 0.36 |
| CTATTTTATATGTGCACACATATACTCAGACAAATA [CACACA_site4761] | 9.26 ± 0.32 |
| ACCTATATACTAAATGCACACTTATATATTTATATA [CACACA_site5371] | 9.1 ± 0.4 |
| AAAAAAAAAAAAAAATGTACATATATATAAATATAT [XGTACX_site6768] | 8.56 ± 0.54 |
| TGTATAAATATATGCACACATATATATATTTATATA [CACACA_site3473] | 8.85 ± 0.26 |
| GAGAAAAAAAAAAAAAAACACACGGTACATTCAAAG [CACACA_site1767] | 8.82 ± 0.49 |
| TCAATAAATGAATATGCATGCACGCTCTTTAGAGAT [TGCATGCA_site553] | 9.05 ± 0.25 |
| AAATTAATACATTATTGTACTTTTCATGTGCAGAAA [XGTACX_site8284] | 8.6 ± 0.42 |
| TAATTCGCATTTTATACACACATTCGAACCTTTTTT [CACACA_site7549] | 9.18 ± 0.43 |
| CATATTACATTAAATTGTACATATATATATATATAT [XGTACX_site3295] | 9.53 ± 0.3 |
